Measured values published in PubChem BioAssay AID1671194 (National Center for Advancing Translational Sciences (NCATS), 2021).
About 240 (0.17%) of roughly 140,000 compounds were called active. Inconclusive results, whose numbers are uncertain, are shown with a selection of clear calls. Calls come from the whole dose curve; as a rule, active = well fitted inhibition curve with a large enough effect; inconclusive = small, poorly fitted or top-dose-only effect; inactive = no such curve, though single readings can be large or run the other way. Potencies beside an inconclusive call are fits to weak or partial responses and may not hold up.

Assay: Primary qHTS assay for inhibitors of alpha-synuclein gene (SNCA) expression; note: nearly all actives have a fitted effect of over 45% in size;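 for activity change, negative = inhibition: plate controls were DMSO cells for no effect and cell-free wells for full effect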
Settings: HEK-293 SNCA-luciferase knock-in, luminescence, 24 h; activity change, negative = inhibition: at 57.2 µM (top of the series) unless noted
Potency is the fitted concentration of half-maximal effect; tags give direction and shape of the fitted curve.

| Structure (SMILES) | Potency | activity change, negative = inhibition |
| --- | --- | --- |
| CCCS(=O)(=O)N1CCc2nn(CC3CC3)c(=O)n2CC1 | inconclusive: 3.55 µM [inhibitor, single point] | – |
| O=C(c1cc(F)cc(F)c1)N1CCC(Cc2nc(-c3ccc(F)cc3)no2)CC1 | inconclusive: 39.8 µM [inhibitor, single point] | – |
| CC(C)C[C@@H]1N[C@H](C(=O)NCc2ccccn2)Cc2c[nH]c3cccc1c23 | inconclusive: 28.2 µM [inhibitor, single point] | – |
| NC(=O)CO[C@@H]1CO[C@H]2[C@@H]1OC[C@@H]2NS(=O)(=O)c1cccs1 | inconclusive: 56.2 µM [inhibitor, single point] | – |
| COc1ccc(CN2CCN(c3ncnc4sc5c(c34)CCCC5)CC2)cc1F | inconclusive: 8.91 µM [inhibitor, full curve, poor fit] | – |
| CC(=O)N1CCOc2ccc(CCC(=O)NC(C)Cn3ccc(C)n3)cc2C1 (stereo not drawn) | active: 20 µM | – |
| Cn1ccnc1CN1CCOC(CCNC(=O)NC2CCCC2)C1 (stereo not drawn) | inconclusive: 8.91 µM [inhibitor, single point] | – |
| CN(C(=O)c1ccc2c(c1)NC(C)(COc1cccnc1)CO2)c1ccccc1 (stereo not drawn) | inconclusive: 56.2 µM [inhibitor, single point] | – |
| O=C(Cn1cc(S(=O)(=O)Cc2cccc(Cl)c2)c2ccccc21)Nc1ccc(F)c(Cl)c1 | – | inactive: -26.2% |
| Cc1cc2cc(-c3c(C)noc3C)nc(NCc3cccc(F)c3)c2o1 | inconclusive: 56.2 µM [inhibitor, single point] | – |
| Cc1ccccc1Cc1c(C)nc2c(-c3ccccc3)c(C)[nH]n2c1=O | inconclusive: 7.94 µM [inhibitor, full curve, poor fit] | – |
| O=C(c1ccc[nH]1)N1CCN(C(=O)c2nnn3c2COC(c2ccc(Cl)cc2)C3)CC1 (stereo not drawn) | – | inactive: -7.21% |
| Cc1ccc(CN2C(=O)OC(c3cccc(NC(=O)c4ccccc4)c3)C2C(=O)NCCC(C)C)cc1 (stereo not drawn) | – | inactive: -32.9% |
| CCCN(CC1CCOC1)C(=O)NCCC(C)C (stereo not drawn) | – | inactive: 3.6% |
| Cc1cccc(-c2nc3ccc(C(=O)N(C)C)cc3o2)n1 | inconclusive: 39.8 µM [inhibitor, single point] | – |
| CN1CCCN(S(=O)(=O)c2cccc(Cl)c2)c2ccccc21 | inconclusive: 28.2 µM [inhibitor, single point] | – |
| COc1cc(NC(=O)CCN2CCCCO2)ccc1NC(=O)CC(C)C | inconclusive: 3.55 µM [inhibitor, single point] | – |
| CCCn1c(C)cnc1CC1CCN(C(=O)NCCc2ccccc2)CC1 | inconclusive: 3.55 µM [inhibitor, single point] | – |
